Measured values as given in the supplement of paper PMC12217912.
The other results are listed elsewhere or left out. Sequences were assembled here from the parent chain. Inactive controls read about 0.05.

B1: TEV protease; numbered along this chain (parent)
chain: MGESLFKGPRDYNPISSSICHLTNESDGHTTSLYGIGFGPFIITNKHLFRRNNGTLVVQSLHGVFKVKDTTTLQQHLVDGRDMIIIRMPKDFPPFPQKLKFREPQREERICLVTTNFQTKSMSSMVSDTSCTFPSGDGIFWKHWIQTKDGQCGSPLVSTRDGFIVGIHSASNFTNTNNYFTSVPKNFMELLTNQEAQQWVSGWRLNADSVLWGGHKVFMVKPEEPFQPVKEATQL

Variants of: B1
Assay: raw area under fraction-flipped curve 0-4 h after induction (AUC4h, not background-subtracted), DNA-recorder readout of cleavage of the substrate (dimensionless); higher = more cleavage of the substrate by the protease variant
Details: temperature: 34 °C; time window: 0-4 h after rhamnose induction
Protocol: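 In vivo DNA recorder in E. coli TOP10(DE3) ΔrhaA at 34 °C. Each TEVp single-site mutant (parent TEVp 0) is paired with a single-site variant of the 7-mer TEVs (canonical ENLYFQ|S). The substrate sits between flexible linkers in a Bxb1-sfGFP-TEVs-SsrA fusion, so cleavage stabilises Bxb1 and speeds flipping of a recombination array, read by NGS. The value is the raw area under the fraction-flipped curve over 0-4 h after rhamnose induction (AUC4h), with ≥20 reads per time point. It is not background-subtracted; inactive controls average about 0.047.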
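Also: Bxb1 expression induced with 0.2% (w/v) L-rhamnose at OD600 near 0.5, cultures sampled hourly, flipped fraction per protease–substrate barcode pair counted by paired-end Illumina sequencing.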

Row | Variant | area with substrate EALYFQS | area with substrate ECLYFQS | area with substrate EELYFQS | area with substrate EGLYFQS | area with substrate EILYFQS | area with substrate EMLYFQS | area with substrate ERLYFQS | area with substrate ESLYFQS | area with substrate ETLYFQS | area with substrate EVLYFQS | area with substrate EWLYFQS | area with substrate EDLYFQS | area with substrate EHLYFQS | area with substrate EKLYFQS | area with substrate EPLYFQS | area with substrate EQLYFQS | area with substrate EYLYFQS | area with substrate ELLYFQS | area with substrate EFLYFQS
1 | K66M | 0.101 | 0.0983 | 0.118 | 0.0944 | 0.099 | 0.112 | 0.0865 | 0.0866 | 0.123 | 0.0887 | 0.0892 | – | – | – | – | – | – | – | –
2 | V67A | 0.114 | 0.0832 | – | – | 0.0866 | 0.102 | – | 0.101 | – | 0.0907 | 0.0877 | 0.0853 | 0.0975 | 0.0774 | 0.108 | 0.0726 | 0.0903 | – | –
3 | V67S | 0.0906 | 0.105 | – | 0.0938 | 0.075 | 0.0836 | 0.0817 | 0.103 | – | 0.0884 | 0.0792 | 0.115 | – | 0.0899 | 0.0877 | 0.0816 | 0.0824 | 0.0788 | –
4 | V67W | 0.114 | 0.0716 | – | 0.102 | 0.0919 | 0.108 | 0.107 | 0.115 | 0.0634 | 0.0916 | 0.0895 | – | – | 0.0857 | 0.106 | 0.114 | – | 0.103 | 0.081
5 | K68A | 0.122 | 0.0805 | 0.13 | 0.0995 | 0.0847 | 0.129 | 0.101 | 0.137 | – | 0.0977 | – | – | 0.112 | – | – | 0.117 | 0.112 | 0.101 | 0.0966
6 | K68I | 0.11 | 0.0993 | 0.145 | 0.0863 | 0.0815 | – | 0.0973 | 0.0926 | 0.125 | 0.072 | 0.0732 | – | – | 0.095 | 0.115 | 0.104 | – | 0.0872 | 0.0955
7 | K68Y | 0.128 | 0.113 | – | – | 0.0948 | 0.113 | 0.0923 | – | – | – | 0.0935 | 0.133 | – | 0.136 | – | 0.112 | 0.0982 | – | –
8 | D69S | 0.094 | 0.0931 | 0.103 | – | 0.0816 | 0.0962 | 0.0875 | 0.0804 | 0.0982 | 0.0845 | 0.0748 | – | 0.0826 | – | – | 0.095 | 0.0829 | 0.0831 | 0.111
9 | T70L | 0.0897 | – | 0.0666 | 0.0635 | – | 0.0977 | 0.0825 | 0.0862 | 0.0765 | 0.0801 | 0.0787 | 0.0894 | – | 0.0789 | 0.161 | 0.0853 | – | 0.0788 | 0.0857
10 | T70R | 0.0664 | 0.0815 | – | 0.0603 | 0.0552 | 0.0835 | 0.0802 | 0.0566 | – | – | 0.0723 | – | – | – | – | – | 0.0626 | 0.051 | –
11 | T71V | 0.0969 | 0.0863 | – | 0.0798 | 0.0616 | – | 0.0969 | 0.0968 | – | – | 0.0819 | 0.0917 | – | – | – | 0.0954 | 0.0902 | 0.0862 | –
12 | L73E | 0.0534 | – | – | 0.0574 | 0.0441 | 0.0472 | 0.0497 | 0.0602 | – | – | 0.061 | – | – | 0.0645 | 0.0485 | – | – | 0.0545 | –
13 | L73Q | 0.0821 | – | 0.0664 | 0.0627 | 0.0421 | 0.0662 | 0.0563 | 0.0716 | 0.0599 | 0.0595 | 0.0564 | 0.0641 | 0.0573 | 0.0707 | 0.0674 | 0.0701 | 0.0733 | – | 0.0489
14 | L73R | 0.0616 | – | 0.0523 | – | 0.061 | 0.0605 | 0.0635 | 0.0574 | 0.0576 | 0.0731 | 0.128 | 0.0569 | – | 0.103 | 0.0745 | 0.0759 | – | 0.0561 | –
15 | Q75A | 0.159 | – | 0.114 | 0.0914 | – | – | 0.0979 | 0.0891 | – | 0.0898 | 0.175 | – | – | 0.0921 | – | 0.124 | – | – | –
16 | Q75E | 0.0749 | 0.0704 | – | 0.0595 | 0.0668 | 0.0762 | 0.0758 | 0.073 | – | 0.0648 | – | – | – | 0.0646 | 0.0786 | 0.0658 | 0.0664 | – | 0.0861
17 | Q75W | 0.0625 | 0.0604 | – | 0.0654 | 0.0633 | 0.0704 | – | 0.0769 | – | – | 0.0826 | – | 0.101 | – | 0.0597 | 0.0683 | 0.0621 | 0.0732 | –
18 | H76D | 0.0591 | – | 0.0617 | – | 0.0439 | 0.0598 | 0.0761 | 0.067 | – | 0.061 | 0.0539 | – | – | 0.0623 | 0.078 | 0.0775 | 0.0851 | 0.0565 | –
19 | H76L | 0.18 | 0.0734 | – | 0.0805 | – | – | – | 0.119 | 0.143 | 0.0787 | – | 0.14 | – | 0.114 | – | 0.124 | – | – | –
20 | H76M | 0.108 | – | 0.121 | 0.126 | 0.102 | 0.0998 | 0.1 | 0.116 | – | – | – | 0.0869 | – | – | – | 0.156 | – | 0.118 | –
21 | H76W | 0.104 | – | 0.0646 | 0.0728 | 0.0731 | 0.0815 | 0.0756 | 0.0873 | – | – | – | 0.0946 | 0.0814 | 0.104 | 0.12 | 0.0759 | – | – | 0.0928
22 | D79F | 0.0988 | – | 0.0829 | – | 0.0752 | 0.108 | – | 0.0888 | – | 0.0916 | 0.0841 | 0.139 | – | – | 0.0849 | – | 0.0937 | – | –
23 | D79K | 0.0954 | 0.0996 | 0.12 | – | 0.103 | 0.105 | 0.09 | 0.101 | – | – | – | – | 0.0822 | 0.0926 | 0.0969 | 0.0723 | 0.081 | – | 0.08
24 | D79M | 0.102 | 0.0887 | 0.116 | – | 0.0854 | 0.0922 | 0.0941 | 0.0931 | 0.0876 | 0.069 | 0.072 | – | 0.0866 | – | 0.105 | – | 0.0714 | – | –
25 | D79S | 0.0986 | 0.143 | 0.123 | 0.0843 | 0.0903 | 0.0926 | 0.083 | 0.104 | 0.1 | 0.0846 | 0.0723 | – | – | 0.102 | 0.108 | – | – | 0.0886 | 0.093
26 | D79T | 0.0853 | 0.0721 | – | – | 0.0833 | 0.0016 | – | 0.0602 | – | 0.0776 | – | 0.117 | – | – | 0.127 | 0.0985 | 0.118 | – | –
27 | D79W | 0.0765 | – | – | 0.102 | 0.0817 | – | 0.083 | 0.0947 | 0.0982 | 0.0728 | – | 0.0918 | – | – | 0.104 | 0.109 | 0.116 | – | 0.112
